Laboratory results taken from PubChem BioAssay (NCI).
Values joined by “and” are separate entries in the source; they are usually repeats but may differ in a detail not shown here. Equal values may be shown once.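 Each compound was tested at five concentrations against cells in 96-well plates for 48 hours. GI50 = concentration required for 50% inhibition of growth. At the TGI there is no net growth.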 Active and inactive are the calls of the source.

Tests used:
Assay in all cases: NCI tumour cell line growth inhibition, 48 h
[1] = test system: A498 renal
[2] = test system: A549 NSCLC
[3] = test system: CAKI-1 renal
[4] = test system: CCRF-CEM leukemia
[5] = test system: COLO 205 colon
[6] = test system: DLD-1 colon
[7] = test system: DMS 114 small cell lung
[8] = test system: DMS 273 small cell lung
[9] = test system: EKVX NSCLC
[10] = test system: HCC-2998 colon
[11] = test system: HCT-116 colon
[12] = test system: HCT-15 colon
[13] = test system: HL-60(TB) leukemia
[14] = test system: HOP-62 NSCLC
[15] = test system: HOP-92 NSCLC
[16] = test system: HT29 colon
[17] = test system: IGROV1 ovarian
[18] = test system: K-562 leukemia
[19] = test system: KM12 colon
[20] = test system: LOX IMVI melanoma
[21] = test system: M19-MEL melanoma
[22] = test system: MALME-3M melanoma
[23] = test system: MCF7 breast
[24] = test system: MOLT-4 leukemia
[25] = test system: NCI-H226 lung
[26] = test system: NCI-H23 lung
[27] = test system: NCI-H460 lung
[28] = test system: NCI-H522 lung
[29] = test system: NCI/ADR-RES ovarian
[30] = test system: OVCAR-3 ovarian
[31] = test system: OVCAR-5 ovarian
[32] = test system: OVCAR-8 ovarian
[33] = test system: P388 leukemia
[34] = test system: P388/ADR leukemia
[35] = test system: RPMI-8226 leukemia
[36] = test system: RXF 393 renal
[37] = test system: SF-268 CNS
[38] = test system: SF-295 CNS
[39] = test system: SF-539 CNS
[40] = test system: SK-MEL-2 melanoma
[41] = test system: SK-MEL-28 melanoma
[42] = test system: SK-MEL-5 melanoma
[43] = test system: SK-OV-3 ovarian
[44] = test system: SN12K1 renal
[45] = test system: SNB-19 CNS
[46] = test system: SNB-75 CNS
[47] = test system: SNB-78 CNS
[48] = test system: SW-620 colon
[49] = test system: U251 CNS
[50] = test system: UACC-257 melanoma
[51] = test system: UACC-62 melanoma
[52] = test system: XF 498 CNS

Structure (SMILES): COc1c(O)cc2c(c1OC)-c1ccc(OC)c(=O)cc1[C@@H](NC(C)=O)CC2
- GI50 [1]: 0.162 µM and 0.122 µM and 0.0375 µM
- TGI [1]: 1.83 µM and 1.32 µM and 1.14 µM
- TGI [2]: 300 µM and 325 µM and > 375 µM
- GI50 [3]: 0.112 µM and 0.0815 µM
- GI50 [4]: 0.0375 µM
- TGI [4]: 325 µM and > 375 µM
- GI50 [5]: 0.0375 µM
- TGI [5]: 0.372 µM and 0.518 µM and 0.289 µM
- GI50 [6]: 0.0969 µM and 0.158 µM
- TGI [6]: 300 µM and 325 µM
- GI50 [7]: 0.0375 µM
- GI50 [8]: 0.0375 µM
- TGI [8]: 0.101 µM and 0.0375 µM
- GI50 [9]: 0.0375 µM
- TGI [9]: 325 µM and > 375 µM
- GI50 [10]: 0.147 µM and 0.0973 µM and 0.0375 µM
- TGI [10]: 300 µM and 40.1 µM and 52.3 µM
- GI50 [11]: 0.0375 µM
- GI50 [12]: 0.0994 µM
- GI50 [13]: 0.0375 µM
- GI50 [14]: 0.0375 µM
- TGI [14]: 325 µM and > 375 µM
- GI50 [15]: 0.0375 µM
- GI50 [16]: 0.141 µM and 0.0808 µM and 0.0375 µM
- GI50 [17]: 0.125 µM and 0.211 µM and 0.0375 µM
- TGI [17]: 300 µM and 325 µM and > 375 µM
- GI50 [18]: 0.0375 µM
- TGI [18]: 300 µM and 325 µM and > 375 µM
- GI50 [19]: 0.0375 µM
- TGI [19]: 325 µM and > 375 µM
- GI50 [20]: 0.03 µM and 0.269 µM and 0.0802 µM
- GI50 [21]: 0.203 µM and 0.0325 µM and 0.0375 µM
- TGI [21]: 300 µM and 325 µM and > 375 µM
- TGI [22]: 325 µM and > 375 µM
- GI50 [23]: 0.0375 µM
- TGI [23]: 300 µM and 325 µM and > 375 µM
- GI50 [24]: 0.225 µM and 0.0325 µM and 0.0375 µM
- TGI [25]: 1.17 µM
- GI50 [26]: 0.202 µM and 0.0927 µM and 0.0375 µM
- TGI [26]: 300 µM and 325 µM and 216 µM
- TGI [27]: 59 µM
- GI50 [28]: 0.0342 µM and 0.0375 µM
- TGI [28]: 0.133 µM and 0.0457 µM
- GI50 [29]: inactive
- TGI [29]: 64.2 µM and 47.7 µM and > 375 µM
- GI50 [30]: 0.0375 µM
- TGI [30]: 0.0946 µM and 0.0375 µM
- GI50 [31]: inactive
- TGI [31]: 300 µM and 325 µM and > 375 µM
- GI50 [32]: 0.0375 µM
- TGI [32]: 300 µM and 325 µM and > 375 µM
- GI50 [33]: 0.0375 µM
- GI50 [34]: inactive
- TGI [34]: 45.4 µM and 60.3 µM
- GI50 [35]: 0.0375 µM
- TGI [35]: 0.274 µM and 0.0375 µM
- GI50 [36]: 0.108 µM and 0.0375 µM
- GI50 [37]: 0.0433 µM and 0.0885 µM and 0.0375 µM
- TGI [37]: 300 µM and 325 µM and > 375 µM
- TGI [38]: 0.131 µM
- GI50 [39]: 0.0372 µM and 0.0598 µM and 0.0375 µM
- TGI [39]: 0.306 µM and 0.264 µM and 0.0375 µM
- GI50 [40]: 0.0588 µM and 0.0325 µM and 0.0375 µM
- GI50 [41]: 0.0375 µM
- TGI [41]: 325 µM and > 375 µM
- GI50 [42]: 0.0375 µM
- TGI [42]: 114 µM and 88.1 µM and > 375 µM
- GI50 [43]: 0.104 µM and 0.302 µM
- TGI [43]: 137 µM and 325 µM
- GI50 [44]: 0.0375 µM
- TGI [44]: 0.1 µM and 0.0632 µM and 0.0375 µM
- GI50 [45]: 0.0375 µM
- GI50 [46]: inactive
- TGI [46]: 300 µM and 325 µM
- GI50 [47]: 0.0375 µM
- TGI [47]: 300 µM and 325 µM and > 375 µM
- GI50 [48]: 0.0375 µM
- TGI [48]: 300 µM and 325 µM and > 375 µM
- GI50 [49]: 0.0375 µM
- TGI [50]: 300 µM and 104 µM and > 375 µM
- GI50 [51]: 0.0566 µM and 0.106 µM and 0.0375 µM
- TGI [51]: 300 µM and 325 µM and > 375 µM
- TGI [52]: 0.165 µM and 0.0375 µM
